What all share (assay): Primary Screen for Target Class Profiling of Small Molecule Inhibitors of Methyltransferases
Assay [1] concerns the target Glycine N-methyltransferase (Homo sapiens) (UniProt Q14749). The following applies: purified enzyme, MTase-Glo SAH luminescence; measured here: GNMT inhibition; at 40 µM; stronger effect = lower value. An outline of the steps: (§1)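 Each enzyme was assayed with SAM and its substrate. SAH formation detected by MTase-Glo luminescence; single-point 40 uM screen[…].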

For assay [2], the target named is Guanidinoacetate N-methyltransferase (Homo sapiens) (UniProt Q14353). To be noted: purified enzyme, MTase-Glo SAH luminescence; measured here: GAMT inhibition; at 40 µM; stronger effect = lower value. An outline of the steps:
as §1

The target of assay [3] is Histamine N-methyltransferase (Homo sapiens) (UniProt P50135). To be noted: purified enzyme, MTase-Glo SAH luminescence; measured here: HNMT inhibition; at 40 µM; stronger effect = lower value. An outline of the steps: as §1
For assay [4], the target named is Nicotinamide N-methyltransferase (Homo sapiens) (UniProt P40261). To be noted: purified enzyme, MTase-Glo SAH luminescence; measured here: NNMT inhibition; at 40 µM; stronger effect = lower value. An outline of the steps:
as §1

In assay [5] the target is Phenylethanolamine N-methyltransferase (Homo sapiens) (UniProt P11086). To be noted: purified enzyme, MTase-Glo SAH luminescence; measured here: PNMT inhibition; at 40 µM; stronger effect = lower value. The method in brief:
as §1

Where “and” joins values, the source holds several entries; their conditions need not be identical. Equal values may be shown once. The list shows a part of the results. Shown are side measurements of this screen, not its main read-out; they come without a call.
On the % scale 0 is the no-effect control and ±100 the full control effect.

As for `CN(CCCN1C(=O)c2ccc(-c3ccco3)n2CC1(C)C(=O)NC1CCCC1)C1CCCCC1` (configuration not stated), the activity change, negative = inhibition in assay [1] is 3.04%; in assay [2], 0.456%; in assay [3] it was -2.75%; in assay [4] it was 5.14%; in assay [5] it was 3.22%.

For `O=C(NCCN1CCOCC1)c1ccc(Cl)cc1`, the activity change, negative = inhibition is -0.973% in assay [1]; 10.5% in assay [2]; 7.69% in assay [3]; -5.17% in assay [4]; 5.59% in assay [5].

With `C=CC(C)(O)CC/C=C(\C)C(=O)OC1C(O)C(CO)OC(OC(=O)C23CCC(C)(C)CC2C2=CCC4C5(C)CCC(OC6OC(COC7OCC(OC(C)=O)C(O)C7OC7OC(COC(C)=O)C(O)C(O)C7OC(C)=O)C(O)C(O)C6OC6OCC(O)C(O)C6O)C(C)(C)C5CCC4(C)C2(C)C(O)C3O)C1OC1OCC(OC2OCC(O)C(OC3OCC(O)C(O)C3O)C2O)C(O)C1O` (configuration not stated), the activity change, negative = inhibition is 0% in assay [1]; 20.7% in assay [2]; 8.64% in assay [3]; 7.86% in assay [4]; 4.84% in assay [5].

For `CC1CCC(NC(=O)C2(C)Cn3c(ccc3-c3ccco3)C(=O)N2Cc2ccccn2)CC1` (configuration not stated), the activity change, negative = inhibition in assay [1] is -5.39%; in assay [2], 0%; in assay [3], 7.02%; in assay [4], 3.19%; in assay [5] it was 4.02%.

Turning to `CCC1c2ccc(C)n2CCN1C(=O)Nc1ccccc1F` (configuration not stated), the activity change, negative = inhibition in assay [1] was 4.08%; in assay [2] it was 10.4%; in assay [3], 1.77%; in assay [4], -5.26%; in assay [5], 1.33%.

As for `CCOC(=O)N1c2ccc(C(F)(F)F)cc2C(N(Cc2cc(C(F)(F)F)cc(C(F)(F)F)c2)C(=O)OC)CC1CC` (configuration not stated), the figures for the activity change, negative = inhibition in assay [1] and in assay [3] were -5.16% and 4.12%, respectively.

For the compound `COc1ccc(CCN2C(=O)c3cc4occc4n3CC2(C)C(=O)NC2CCCCC2C)c(OC)c1` (configuration not stated), the activity change, negative = inhibition in assay [1] is 0.459%; in assay [2], 0%; in assay [3], -0.702%; in assay [4], -2.47%; in assay [5], -3.54%.

Take `COC(=O)c1cc2n(n1)CC(C)(C(=O)NC1CCCCCC1)N(c1cc(C)cc(C)c1)C2=O` (configuration not stated): the activity change, negative = inhibition was -0.875% in assay [1]; 4.9% in assay [2]; -9.21% in assay [3]; 0.17% in assay [4]; -0.271% in assay [5].

Turning to `O=C(C(Cc1ccccc1)NS(=O)(=O)c1cccc2nsnc12)N1CCN(c2ccccn2)CC1` (configuration not stated), the activity change, negative = inhibition in assay [1] was -0.955%; in assay [2] it was 0.068%; in assay [3], 5.69%; in assay [4] it was 3.07%; in assay [5], 1.03%.

`CNC(=O)Nc1ccc(OC)c(NC(=O)NC(=O)c2cc(F)c(F)cc2Cl)c1`: the activity change, negative = inhibition was -4.98% in assay [1]; -11.4% in assay [2]; 4.66% in assay [3]; -24.4% in assay [4]; -7.6% in assay [5].

For the compound `O=C(CNC(=O)c1cccc(C(F)(F)F)c1)N[C@@H]1CCN(Cc2ccc(Cl)cc2)C1`, the activity change, negative = inhibition was -0.827% in assay [1]; 6.76% in assay [2]; 7.74% in assay [3]; -13.1% in assay [4]; 0.758% in assay [5].

As for `CCCC(CCC)C(=O)NCc1ccc2c(cnn2-c2ccccc2OC)c1`, the activity change, negative = inhibition in assay [1] was -0.006%; in assay [2], 4.83%; in assay [3], 8.71%; in assay [4], -18.3%; in assay [5], -3.81%.

With `CCOC(=O)c1cc2n(n1)CC(C)(C(=O)NCc1ccccc1OC)N(c1ccc(OC)cc1)C2=O` (configuration not stated), the activity change, negative = inhibition in assay [1] is 1.13%; in assay [2] it was 6.13%; in assay [3], 6.96%; in assay [4] it was -1.07%; in assay [5], 0.858%.

As to `NS(=O)(=O)OC[C@@H]1C[C@@H](n2ccc3c(N[C@H]4CCc5ccccc54)ncnc32)C[C@@H]1O`, the activity change, negative = inhibition in assay [1] was -5.31% and -14.1%; in assay [2], 3.34% and -5.96%; in assay [3] it was -4.98% and -5.1%; in assay [4] it was -20.6% and -25.2%; in assay [5] it was -78.5% and -74.3%.

As for `COc1ccc2c(c1)c(NC(C)=O)c1n2CC(C)(C(=O)NC2CCCC2)N(Cc2cccnc2)C1=O` (configuration not stated), the activity change, negative = inhibition came out at 3.03% in assay [1]; 3.45% in assay [2]; 10% in assay [3]; 8.27% in assay [4]; 2.66% in assay [5].

As to `Cc1ccc(Cl)cc1N1C(=O)c2cc(C(C)C)nn2CC1(C)C(=O)NC1CCCCC1` (configuration not stated), the activity change, negative = inhibition is -4.64% in assay [1]; 1.5% in assay [2]; -1.51% in assay [3]; -4.32% in assay [4]; -0.816% in assay [5].

Consider `CCn1c(=O)c2ccnn2c2ccc(C(=O)O)cc21`, for which the activity change, negative = inhibition is 0.08% in assay [1]; 2.69% in assay [2]; 3.46% in assay [3]; -4.92% in assay [4]; 16% in assay [5].

As for `FC(F)(F)c1ccc(-c2noc([C@@H]3Cc4nc[nH]c4CN3Cc3cc4ccccc4o3)n2)cc1`, the activity change, negative = inhibition in assay [1] was -8.95%; in assay [2], -8.32%; in assay [3], -8.28%; in assay [4] it was -11.3%; in assay [5], -9.16%.

Consider `Cc1ccccc1Cn1nc2n(CC(C)C)c(=O)c3ccc(C(=O)NCC(C)C)cc3n2c1=O`, for which the activity change, negative = inhibition amounted to 8.41% in assay [1]; 3.42% in assay [2]; 9.19% in assay [3]; 4.14% in assay [4]; 7.76% in assay [5].

For the compound `COc1ccc(CNC(=O)c2ccc3c(=O)nc4c(-c5ccc(Cl)cc5)n[nH]n4c3c2)cc1`, the activity change, negative = inhibition in assay [1] was -2.35%; in assay [2], -0.182%; in assay [3], 2.36%; in assay [4] it was 0.702%; in assay [5] it was 1.01%.

As for `Cc1ccc(N2C(=O)c3ccccc3CC2(C)C(=O)NCc2ccccc2)cc1` (configuration not stated), the activity change, negative = inhibition in assay [1] was 0.7%; in assay [2], 5.13%; in assay [3] it was -1.13%; in assay [4] it was -7.04%; in assay [5], -3.3%.

On to `Cc1onc(-c2c(F)cccc2Cl)c1C(=O)N[C@@H]1C(=O)N2[C@@H]1SC(C)(C)[C@@H]2C(=O)O`, for which the activity change, negative = inhibition in assay [1] is -1.39%; in assay [2], 3.96%; in assay [3], 3.3%; in assay [4], -12.8%; in assay [5], -0.833%.

For `CC(C)CCNc1nc2c(-c3cccc(Br)c3)nnn2c2ccccc12`, the activity change, negative = inhibition in assay [1] was 0.578%; in assay [2], 4.21%; in assay [3] it was 6.59%; in assay [4], 0.971%; in assay [5] it was -0.91%.

On to `COc1ccc(-c2n[nH]n3c2nc(=O)c2ccc(C(=O)NCc4ccccn4)cc23)cc1`, for which the activity change, negative = inhibition in assay [1] is -4.9%; in assay [2], 0%; in assay [3], 8.56%; in assay [4], 9.11%; in assay [5] it was 4.56%.

Consider `CC(C)(Oc1ccc(-c2nc3cc(Cl)ccc3s2)cc1)C(=O)O`, for which the activity change, negative = inhibition in assay [1] is -13.7%; in assay [2], -24.8%; in assay [3], 0.055%; in assay [4], -44.3%; in assay [5] it was -11%.

With `CN1C(=O)c2cc(C(=O)NCc3cccc(F)c3)nn2CC1(C)C(=O)NCc1ccc(F)cc1` (configuration not stated), the activity change, negative = inhibition was -4.51% in assay [1]; -4.31% in assay [2]; -10.8% in assay [3]; -1.47% in assay [4]; -5.06% in assay [5].

Turning to `Cc1ccc(NC(=O)CSc2nnc3n(CC(C)C)c(=O)c4cc(F)ccc4n23)c(C)c1`, the activity change, negative = inhibition in assay [1] was -6.93%; in assay [2], 2.71%; in assay [3], -1.78%; in assay [4] it was -12.9%; in assay [5], -4.68%.

For the compound `CC1(C)[C@@H]2CC=C(CO[C@@H]3O[C@H](CO[C@@H]4OC[C@H](O)[C@H](O)[C@H]4O)[C@@H](O)[C@H](O)[C@H]3O)[C@H]1C2`, the activity change, negative = inhibition is 4.65% in assay [1]; 4.84% in assay [2]; 10.5% in assay [3]; -8.01% in assay [4]; 7.32% in assay [5].

Consider `COCCOCC(=O)N1CCC(N2C(=O)CCC2C(=O)NCc2ccccc2)CC1` (configuration not stated), for which the activity change, negative = inhibition in assay [1] is -6.69%; in assay [2], -4.43%; in assay [3], -4.72%; in assay [4] it was -10.2%; in assay [5], -4.79%.

These data come from PubChem BioAssay AID1745853 (National Center for Advancing Translational Sciences (NCATS), 2022).
